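Growth conditions: 96-well plates. Treatment: test compound, 48 hours, 5 concentrations. Analysis: linear interpolation between bracketing concentrations; unreached endpoints set to highest concentration. Here, GI50 denotes the concentration required for 50% inhibition of growth.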 The source made the active and inactive calls. No stated cut-off is given here; in the data, active = GI50 up to about 1.1 µM and inactive = higher. Numbered stars: 1 amine (or outer) side, 2 acyl side, 3 side chain; on linkers, the order of the positions; unused ones are H or OH. Square brackets hold non-standard residues; d marks the D form. Peptide text beside a SMILES is read from it. * marks the point of attachment. X41 = CCC(=O)CC1CC(C)CC(C(=O)[*:2])N1[*:1]; X40 = CCCCCCCCC(C)C(=O)*; Aib = CC(C)(N)C(=O)O; X42 = CC(CN(C)CCO)N*
test system: NCI-H322M; assay: growth of human tumour cells (NCI), 48 h

Compound	GI50
Cc1c2ccncc2c(C)c2c1[nH]c1ccc(OC(C)(C)C)cc12	inactive: 2.38 µM
Nc1c2ccccc2nc2nccnc12	inactive: > 100 µM
COc1cccc(NC(=O)C(=O)C(C(=O)c2ccccc2F)C2OC(=O)c3ccccc32)c1 (stereo unspecified)	inactive: 26.8 µM
C[C@]12CC[C@H]3[C@@H](CC=C4C[C@@H](N5CCCC5)CC[C@@]43C)[C@@H]1C/C(=C\c1ccc([N+](=O)[O-])cc1)[C@@H]2O	inactive: 16.8 µM
O=C(O)c1nnsc1COCc1ccccc1	inactive: > 100 µM
C=CC1=C(C)c2cc3[nH]c(c4c5nc(cc6[nH]c(cc1n2)c(C)c6CC)C=C5C(=O)C4C(=O)OC)C(CCC(=O)OC/C=C(\C)CCCC(C)CCCC(C)CCCC(C)C)C3C.C=CC1=C(C)c2cc3[nH]c(c4c5nc(cc6[nH]c(cc1n2)c(C=O)c6CC)C=C5C(=O)C4C(=O)OC)C(CCC(=O)OC/C=C(\C)CCCC(C)CCCC(C)CCCC(C)C)C3C (stereo unspecified)	inactive: > 100 µM
COC1=C(C)C(=O)C2C(C1=O)C(c1ccc(OC)c(OC)c1)[C@H]2C (stereo partly specified)	inactive: > 100 µM
Cc1ccc(/C=C2/N/C(=N\N=C/C(O)C(O)C(O)CO)NC2=O)cc1 (stereo unspecified)	inactive: > 100 µM
CCOC(=O)c1sc2nc(SC)nc(N3CCCCC3)c2c1N	inactive: > 100 µM
O=c1[nH]c(=O)n(C2CC(O)C(CO)O2)c2nc3ccc4ccccc4c3nc12 (stereo unspecified)	inactive: 46.9 µM
CN(C)CCCn1cnc2cc(Cl)c(Cl)cc21	inactive: > 100 µM
O=C(N/N=C\c1ccccc1)Nc1cccc2ccccc12	inactive: 57.9 µM
CCOC(=O)/C=C/CCO[Si](C)(C)C(C)(C)C	inactive: > 100 µM
CCOC(=O)c1c(-c2ccccc2)oc(-c2ccccc2)c1C(=O)OCC	inactive: > 100 µM
O=[N+]([O-])/C(C(Cl)=C(Cl)Cl)=C(\Nc1cccc2ccccc12)n1nnc2ccccc21	inactive: 87.1 µM
CC1=CC2C3(C)C(C)(C(C)=CP3(=O)c3c(C(C)C)cc(C(C)C)cc3C(C)C)C1P2(=O)c1c(C(C)C)cc(C(C)C)cc1C(C)C (stereo unspecified)	inactive: 2.47 µM
O=C(NC(Cc1ccc(I)cc1)C(=O)O)c1ccc(Br)cc1 (stereo unspecified)	inactive: > 100 µM
O=C(CC1(O)C(=O)Nc2c(Cl)cc(Cl)cc21)c1ccc([N+](=O)[O-])cc1 (stereo unspecified)	inactive: > 74.6 µM
c1cnc2nc3n(c2c1)CSC3	inactive: > 100 µM
CC(=O)OCCOCNC(=S)N/N=C/c1ccc([N+](=O)[O-])o1	inactive: > 100 µM
CCCCCCCCCCCCCCCCNC(=O)/C(=C\c1ccc(Cl)c(Cl)c1)NC(=O)c1ccccc1	inactive: 51.4 µM
CC(C)(C)c1cc(C(C)(C)C)c2c(c1O)OC(=O)CS2	inactive: 14.3 µM

Compound	GI50
COC(=O)/C=c1\s/c(=C\C(=O)OC)c2ccccc12	inactive: > 100 µM
COc1cc(OC)c(OC)cc1/C=N/NC(=O)N/N=C/c1cc(OC)c(OC)cc1OC	inactive: > 100 µM
O=[N+]([O-])c1ccc(Cl)cc1-n1nc(-c2ccccc2)cc1-c1ccccc1	inactive: > 100 µM
C=CC/N=C1/N=C(CC(=O)OCC)CS1	inactive: > 100 µM
N#Cc1c(-c2ccccc2)c(C#N)c(=O)n(NS(=O)(=O)c2ccccc2)c1O	inactive: > 100 µM
O=P(O)(O)C(NCC(O)CN1CCOCC1)P(=O)(O)O (stereo unspecified)	inactive: > 100 µM
CC(C)(C)C1=NO[C@H]2[C@@H](NC(=O)c3ccccc3)CC[C@@H]12	inactive: > 100 µM
Nc1ccccc1-c1noc(=O)[nH]1	inactive: > 100 µM
CCOC(=O)c1nnsc1NN	inactive: > 100 µM
OC(c1cc(C23CC4CC(CC(C4)C2)C3)nc2c(Cl)cc(Cl)cc12)C1CCCCN1 (stereo unspecified)	inactive: 1.74 µM
CS(=O)(=O)Nc1ccc2ccccc2c1	inactive: > 100 µM
S=P1(Oc2ccccc2)NNP2(=NP(N3CC3)(N3CC3)=NP(N3CC3)(N3CC3)=N2)NN1 (stereo unspecified)	inactive: > 100 µM
CC(=O)c1ccc(O)c(CN(C2CCCCC2)C2CCCCC2)c1O	inactive: 88.5 µM
COC(=O)[C@@H]1C[C@H]2[C@H](c3ccccc3Br)[C@@H](OC(C)=O)[C@@H](OCc3ccccc3)ON2O1	inactive: > 100 µM
c1ccc2c(c1)CCN2CCN1CCc2ccccc21	inactive: > 10 µM
COc1ccc(/C=C2/C(=O)N(C(=O)c3ccccc3O)N=C2C)cc1	inactive: 1.18 µM
CN(CCS(=O)(=O)N1C(=O)C2CCCN2C(=O)[C@@H]1Cc1ccccc1)C(=O)OCc1ccccc1 (stereo partly specified)	inactive: > 100 µM
CC(Nc1ncc2c(n1)-c1ccccc1OC2)C(=O)O (stereo unspecified)	inactive: 38.2 µM
C[Si](C)(C)OC1(C#N)C2C3CC4C2C(=O)C2C4C3C21 (stereo unspecified)	inactive: > 100 µM
CC(C)OC1OC(CO)C(O)CC1n1cc(F)c(=O)[nH]c1=O (stereo unspecified)	inactive: > 100 µM
CC1(C)S[C@H](CN)N[C@H]1C(=O)OC(c1ccccc1)c1ccccc1	inactive: 92.3 µM
COc1c(/C=C/C(C)(C)O)cc(C2CC(=O)c3c(O)cc(O)cc3O2)cc1CC=C(C)C (stereo unspecified)	inactive: 8.83 µM

Compound	GI50
Cc1ccc(-c2c3nc(c(-c4ccc(C)cc4)c4ccc([nH]4)c(-c4ccc(OCC5COC(C)(C)O5)cc4)c4nc(c(-c5ccc(C)cc5)c5ccc2[nH]5)C=C4)C=C3)cc1 (stereo unspecified)	inactive: > 10 µM
CC1(C2CCC3(C)C(C2)C3Sc2ccccc2)OCCO1 (stereo unspecified)	inactive: 31.4 µM
CC(=O)OC1CC[C@@]2(C)C(CC[C@]3(C)C2CC=C2[C@@H]4CC(C)(C)CCC4(C)CCC23C)[C@@]1(C)C(=O)O (stereo partly specified)	inactive: 15.9 µM
NC(=S)N/N=C\c1ccc(OCc2cccc(COc3ccc(/C=N/NC(N)=S)cc3)n2)cc1	inactive: 11.4 µM
COC(CNC(=O)C(C)NC(=O)CCc1ccccc1)OC (stereo unspecified)	inactive: > 100 µM
O=c1cc(N2CCCC2)[nH]c(=O)n1Cc1ccccc1	inactive: > 100 µM
CCCCCCCSCC1C(=O)C23C(O)C1CCC2C12COC3(O)C(O)C1C(C)(C)CCC2O (stereo unspecified)	inactive: 19.1 µM
CC(C)[Si](OC1=C(C(=O)N(C)c2ccccc2Cl)CCC1)(C(C)C)C(C)C	inactive: 16.4 µM
CC1C[C@]2(C)C(=S)Nc3ccccc3[C@@H]2Nc2ccccc21 (stereo partly specified)	inactive: 15.9 µM
CC(=O)NC1C(OCC(=O)NCCNc2ccc([N+](=O)[O-])c3[nH]c4ccccc4c(=O)c23)C(O)C(CO)OC1(C)OCc1ccccc1 (stereo unspecified)	inactive: > 100 µM
C[Si](C)(C)/C(Br)=C\CCN1C(=O)CCC1=O	inactive: > 100 µM
C=CCc1c(Cl)nc(Cl)nc1Cl	active: 0.476 µM
N=C(N)NS(=O)(=O)c1ccc(Nc2c3ccccc3nc3c(C(=O)Nc4ccc(S(N)(=O)=O)cc4)cccc23)cc1	inactive: > 100 µM
O=c1[nH]c(=O)n(C2OC(CO)C(N(O)Cc3ccc(F)cc3)C2O)cc1Br (stereo unspecified)	inactive: > 100 µM
Cc1ccc(OCC2OC(C#N)C(Oc3ccc(C)cc3)C2Oc2ccc(C)cc2)cc1 (stereo unspecified)	inactive: > 100 µM
N/C(=N\O)N/N=C/c1ccc(C(F)(F)F)cc1	inactive: 5.43 µM
CC1=CC(C)C(C)N(CCNS(=O)(=O)c2ccc(C)cc2)c2ccccc21 (stereo unspecified)	inactive: 17.7 µM
O=C(O)c1nc2ccc(C(F)(F)F)cc2nc1Nc1ccc(F)cc1	inactive: 25 µM
CCCCCCCCC(C)C(=O)N1CCCC1C(=O)N1C(CC(=O)CC)CC(C)CC1C(=O)NC(C)C(=O)NC(C)(C)C(=O)NC(C)(C)C(=O)NC(C(=O)NC(C)C(=O)NC(C)(C)C(=O)NC(C)(C)C(=O)NC(C)CN(C)CCO)C(C)CC (stereo unspecified) (X40-P[X41]A[Aib][Aib]IA[Aib][Aib]-X42; configuration not given here)	active: 0.406 µM
CC(=O)O[C@H]1[C@H](OC(=O)CC(C)(O)CC(=O)O)C[C@]2(C)C3=C(CCC2C1(C)C)[C@]1(C)CC[C@H]([C@H]2CC[C@H](C(C)(C)O)OC2O)[C@@]1(C)[C@@H](O)C3 (stereo partly specified)	inactive: 19 µM
O=C(NN=C1NCCN1)c1ccco1	inactive: > 100 µM
CC12CCC3=C(CSC4=C3CSc3ccccc34)C1=CCCC2=O (stereo unspecified)	inactive: > 100 µM

Compound	GI50
CN1Nc2ccccc2CC1=O	inactive: > 100 µM
S=C1N=C(Cl)/C(=C\c2ccccc2)N1	inactive: > 100 µM
[N-]=[N+]=N/C1=C/CCCCC(=O)C1	inactive: > 100 µM
CCOC(=O)CCC(NC(=O)c1ccc(NC(OC)c2nc3cc(C(F)(F)F)ccc3nc2-c2ccccc2)cc1)C(=O)OCC (stereo unspecified)	inactive: 15.4 µM
CCc1cc2c(c3c1CCC3=O)CC1(Cc3ccc(C)cc3C1)C2 (stereo unspecified)	inactive: 45.9 µM
O=C(c1ccc(F)cc1)c1cccc(C(=O)c2ccc(F)cc2)n1	inactive: > 100 µM
c1nc(NCCc2c[nH]cn2)c2nc[nH]c2n1	inactive: > 100 µM
O=C1N[C@H]2C(=O)c3c(Cl)sc(Cl)c3[C@H]2O1	inactive: 9.55 µM
COC1OC(=O)C(OC)C(OC)C1OC (stereo unspecified)	inactive: > 100 µM
Nc1[nH]c(=O)[nH]c(=O)c1Cc1cccc(Cl)c1	inactive: 84.5 µM
COc1cc2c(cc1OCCCOc1cc3c(cc1OC)C(=O)N1CCC[C@H]1C(=O)N3)N=C[C@@H]1CCCN1C2=O	inactive: 22.5 µM
O=C1NC(=O)C(C(CC(=O)c2ccc([N+](=O)[O-])cc2)c2ccccc2)C(=O)N1 (stereo unspecified)	inactive: 2.68 µM
COc1cccc(/C=C2\CCC(CCN(C)C)(C3=CCCC3)C2=O)c1 (stereo unspecified)	inactive: 16.6 µM
CC(=O)O[C@H]1CC[C@@]2(C)C(=CC[C@H]3[C@@H]4C[C@H](N5CCOCC5)[C@H](OC(C)=O)[C@@]4(C)CC[C@@H]32)C1	inactive: > 100 µM
CCOC(=O)NN(C(=O)OCC)C(C(=O)C1=CCCCC1)N(NC(=O)OCC)C(=O)OCC	inactive: > 100 µM
NC(=S)c1cccc(C2Nc3ccccc3O2)c1 (stereo unspecified)	inactive: > 100 µM
CC1=NN(c2nc(N)nc(CS(C)(=O)=O)n2)C(C)(C)C1	inactive: > 100 µM
Cc1nc(N)sc1/N=N/c1ccccc1Br	inactive: 39.6 µM
C/C=C1/C[C@@H](C)[C@@](C)(O)C(=O)OCC2=CC[N+]3([O-])CC[C@@H](OC1=O)[C@@H]23 (stereo partly specified) [SENECIONINE N-OXIDE]	inactive: > 100 µM
COC1CCC(O)C(/C=C/[N+](=O)[O-])C1 (stereo unspecified)	inactive: 10.9 µM
